Experiment [1] addresses T1, IL-10Rα receptor on MC/9 mouse mast cells (mouse, UniProt Q61727 17-575).
T1 sequence (looked up): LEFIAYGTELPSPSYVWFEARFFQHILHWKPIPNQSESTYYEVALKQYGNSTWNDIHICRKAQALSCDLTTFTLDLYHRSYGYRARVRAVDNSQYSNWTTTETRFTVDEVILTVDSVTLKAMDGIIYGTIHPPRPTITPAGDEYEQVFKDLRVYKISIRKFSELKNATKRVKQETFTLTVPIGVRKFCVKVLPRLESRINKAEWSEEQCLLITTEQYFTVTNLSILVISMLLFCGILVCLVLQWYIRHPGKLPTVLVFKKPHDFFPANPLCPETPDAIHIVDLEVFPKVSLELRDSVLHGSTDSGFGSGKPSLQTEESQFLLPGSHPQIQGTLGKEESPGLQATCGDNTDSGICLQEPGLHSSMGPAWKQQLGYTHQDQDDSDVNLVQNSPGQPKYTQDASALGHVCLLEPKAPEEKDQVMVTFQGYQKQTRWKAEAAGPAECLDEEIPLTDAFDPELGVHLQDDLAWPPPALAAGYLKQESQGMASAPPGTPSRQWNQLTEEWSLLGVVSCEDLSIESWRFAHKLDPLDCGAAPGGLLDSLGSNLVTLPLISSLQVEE
Nature of the experiment: cell-based or functional assay.

Experiment [2] addresses T2, extracellular portion of the Macaca cynomolgus (fascicularis) IL-10Ra receptor with EPEA tag (Macaca cynomolgus (fascicularis), UniProt A0A2K5WJ66 22-233).
T2 construct: extracellular domain; the same vector was used; also called cynomolgus IL-10Rα receptor; Cynomolgus IL-10 receptor
T2 sequence: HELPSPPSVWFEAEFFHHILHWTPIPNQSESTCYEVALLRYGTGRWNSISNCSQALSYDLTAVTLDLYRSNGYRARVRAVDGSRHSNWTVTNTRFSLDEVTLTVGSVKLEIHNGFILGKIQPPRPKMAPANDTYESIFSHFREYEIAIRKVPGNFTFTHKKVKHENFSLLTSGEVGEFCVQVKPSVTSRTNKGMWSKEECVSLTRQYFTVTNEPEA
Nature of the experiment: BLI (OctetRed96), IL-10-Fc immobilised on AR2G sensors, receptor in solution, 1:1 model. The protocol:
(§1) Binding of human IL-10-Fc of the invention to the human IL-10 receptor, as well as to the cynomolgus, murine and rabbit IL-10Rα receptors, was assessed by bio-layer interferometry using the OctetRed96 device (Pall). IL-10-Fc was bound to AR2G sensors according to the manufacturer's instructions for the preparation and immobilization of AR2G sensors. The sensors with immobilized IL-10 were then immersed into wells containing the human, macaque, murine or rabbit IL-10Rα receptor. Following the association of interleukin and the receptor, the sensors were immersed in the working solution for the subsequent dissociation stage. The resulting sensograms, after subtracting a reference signal, were analyzed using Octet Data Analysis software (Version 8.0) in accordance with the standard procedure and using 1:1 interaction model. According to the data obtained (Table 1), IL-10-Fc of the invention binds to the human, cynomolgus, murine IL-10 receptors.

The target of a further experiment is T3, murine IL-10Rα receptor (murine, UniProt Q61727 17-241, limits assumed).
T3 construct: soluble protein in wells of the BLI assay, construct unknown; also called Murine IL-10 receptor
T3 sequence (looked up): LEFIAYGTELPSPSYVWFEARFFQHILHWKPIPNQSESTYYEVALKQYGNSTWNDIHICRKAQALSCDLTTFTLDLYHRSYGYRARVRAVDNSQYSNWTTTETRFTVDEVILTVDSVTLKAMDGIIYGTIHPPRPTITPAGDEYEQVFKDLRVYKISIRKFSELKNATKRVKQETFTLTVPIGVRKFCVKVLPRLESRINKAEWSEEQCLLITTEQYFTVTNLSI
The description is as above. The procedure:
as §1

B1: immunocytokine (fusion protein) based on IL-10 and human IgG1 Fc fragment of the invention (IL-10-Fc) (Fc fusion)
chain: [omitted - human IgG1 Fc with changes]GGSGGGPGSGGSPGQGTQSENSCTHFPGNLPNMLRDLRDAFSRVKTFFQMKDQLDNLLLKESLLEDFKGYLGCQALSEMIQFYLEEVMPQAENQDPDIKAHVNSLGENLKTLRLRLRRCHRFLPCENKSKAVEQVKNAFNKLQEKGIYKAMSEFDIFINYIEAYMTMKIRN
notes: Produced in CHO cells, purified on protein A; also called immunocytokine of the invention; immunocytokine based on IL-10 and Fc
Usually Kd stands for the equilibrium constant for the complex coming apart. With B1, the “half maximal effective concentration (EC50), proliferation of MC/9 cells in the presence of IL4 (Alamar Blue)” value in experiment [1] came out at 0.0533 nM. Besides, the Kd in experiment [2] amounted to 3.7 nM; with murine IL-10Rα receptor, 2.1 nM.

Source of the values: patent US20240034764A1 (JOINT STOCK COMPANY BIOCAD, published 2024).
